# In ChEMBL document CHEMBL4888484, “Replenishing the malaria drug discovery pipeline: Screening and hit evaluation of the MMV Hit Generation Library 1 (HGL1) against asexual blood stage Plasmodium falciparum ,using a nano luciferase reporter read-out” (2022):
# The campaign covered roughly 150,000 compounds. About 540 (0.36%) showed an effect of 50% or more. Some of the results follow.
# System: Plasmodium falciparum
# Assay: Primary screen in NF54 nanoGlo assay, in single point, at 2uM, 72h; a lower Z score goes with more inhibition
# Type: functional, Erythrocyte
# Settings: timepoint 72 hour
SMILES,% Inhibition [%],Z score
Cc1cc(-c2cc(S(=O)(=O)N[C@@H](C)c3nncn3C)c(C)s2)on1,-1,0.14
N#Cc1ccccc1NC(=O)c1ccc(-n2cccn2)nn1,-3,0.63
Cc1csc(NC(=O)CCc2cnn(C)c2)n1,3,-0.37
O=C(O)c1ccc(OCCN2CCOc3cc(F)ccc3C2)c(Cl)c1,-13,2.08
CN(C)c1nc(Cn2cc(F)ccc2=O)ns1,-7,0.96
CCOc1ccc(NC(=O)[C@H](CC)n2cnc3oc(C)c(C)c3c2=O)cc1,13,-1.56
CC(=O)N(C)C[C@H]1CCN(S(=O)(=O)c2ccccc2)C[C@H]1N(C)C,-3,0.45
CCc1noc(CC)c1CNC(=O)c1nccn1CC,-5,0.87
Cn1ccc2c(-c3cnn(-c4nnn[nH]4)c3)ccnc21,-11,1.02
c1c(CC2CCCCC2)nnn1[C@H]1CO[C@H]2[C@@H]1OC[C@@H]2NCC1CCCCC1,-16,2.49
CCn1ncc(C(=O)N2c3ccncc3C[C@@H]2C)c1C,-5,1
Cc1cc(CN(C)Cc2ccc(C)c3ncccc23)n[nH]1,14,-1.88
CC1CCN(S(=O)(=O)O[C@H]2CCN(C(=O)OC(C)(C)C)C2)CC1,3,-0.3
COc1ccc(CN2C[C@@H]3C[C@H](C2)c2c(-c4ccc(NC(C)=O)cc4)ccc(=O)n2C3)cc1,-6,0.95
Cc1ncsc1CCNc1nccc(-c2c(C)nn(C)c2C)n1,-19,1.88
CCC(C(=O)Nc1cc(C)on1)N1CCN(C2CCCCNC2=O)CC1 (configuration not stated),0,0
CCNC(=O)[C@H](C)NS(=O)(=O)CCOCC1CCCC1,-11,0.93
COc1ccc(C2=NO[C@@H](Cn3c(Cc4ccc(Cl)cc4)nc4c3c(=O)n(C)c(=O)n4C)C2)cc1,-9,1.38
CC[C@@H](CO)NC(=O)c1conc1C(C)(C)NC(=O)OC(C)(C)C,-1,0.19
COCCN(CCOc1ccccc1F)C(=O)Nc1cnns1,6,-0.88
Cc1ccc(-c2cccc(C(=O)NCCCn3c(C)cccc3=O)c2)c(C)n1,-1,0.23

SMILES,% Inhibition [%],Z score
Cc1cc(NS(=O)(=O)c2c(C)c(C)cc3c(C)c(C(=O)N4CCCCC4)oc23)no1,-11,2.03
COc1ccccc1CNC(=O)C[C@@H](c1ccsc1)c1c[nH]c2cccc(OC)c12,22,-2.74
O=C([C@H]1CC2CCC1CC2)N1CCC12CCC2,-40,4.74
O=S(=O)(Nc1cccc2[nH]cnc12)c1ccc(Br)o1,-17,3.19
COc1cccc(CN2CC(n3cc(C(=O)N(C)C)nn3)C2)c1OC,1,-0.22
COc1ccc2c(c1)N(Cc1ccc(C(=O)N(C)C)[nH]1)C[C@H](C)O2,-1,0.16
COC1CCN(S(=O)(=O)NCc2nc3c(F)cccc3[nH]2)CC1,-14,2.21
Cc1cc(=O)n(Cc2ccccc2)c2c(C)cccc12,36,-1.17
Cn1cc(S(=O)(=O)N2CCCN(C(=O)c3ccc(OC(F)(F)F)cc3)CC2)cn1,-6,1
CC(=O)c1cnc(NCCCc2c(C)n[nH]c2C)nc1C,-3,0.45
COC(=O)[C@@H](C)CN(Cc1ccccc1)c1ncccn1,-5,0.61
COCc1nc(C2CC2)nn1-c1ccc(Cl)cc1C,-6,1.22
C[C@@H](c1nc2ccccc2n1C(F)F)N1CCC(c2nc3ccccc3s2)CC1,-3,0.45
COc1ccc(C(C)(C)CNC[C@H](C)C#N)cc1OC,-13,2.05
CCOc1ccc(NC(=O)CCn2c(C(F)(F)F)nc3cc(S(=O)(=O)N(C)C)ccc32)cc1,1,-0.11
CN1C(=O)C2(CCN(C(=O)c3cccs3)CC2)C[C@H]1C(=O)NC1CCCC1,-16,2.08
CC(C)CCOCC1C[C@]2(CC(C)(c3csc(Nc4ccccc4Cl)n3)OC2=O)C(=O)O1 (some centres not stated),1,-0.08
CN1CCC(N(C)C(=O)c2cnc(Cc3c(Cl)cccc3Cl)nc2O)CC1,2,-0.31
O=C1O[C@H](C(=O)Nc2ncccc2OCC2CCCCC2)Cc2ccccc21,-8,1.02
CCCNC(=O)CNc1cncc(OC)n1,-12,1.86
